The source of these data is PMC7819943, “Rice protein-binding microarrays: a tool to detect cis-acting elements near promoter regions in rice”.

The list shows a part of the results.

The target in the experiment is T1, OsWOX13 (Oryza sativa, UniProt Q5QMM3 1-267).
T1 sequence: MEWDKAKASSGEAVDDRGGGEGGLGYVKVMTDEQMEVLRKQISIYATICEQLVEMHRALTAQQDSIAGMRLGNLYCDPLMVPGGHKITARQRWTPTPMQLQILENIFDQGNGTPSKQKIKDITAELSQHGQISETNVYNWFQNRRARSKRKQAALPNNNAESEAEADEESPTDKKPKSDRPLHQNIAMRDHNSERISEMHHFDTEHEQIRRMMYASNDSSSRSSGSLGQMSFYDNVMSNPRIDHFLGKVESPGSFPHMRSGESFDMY
Put plainly: protein-binding microarray (RPBM); PBS, 2% BSA, 51.3 ng/ul salmon testes DNA, 50 uM zinc acetate, 200 nM TF, 25 C, 1 h; high values mean tight binding. The conditions noted are these: protein: recombinant; tags: N-terminal polyhistidine and DsRed monomer fusion (pET32a); label: CyDye5-dUTP incorporated in the synthesized complementary strand; 3' TTTTT single-stranded linker to array surface; dsDNA, one strand shown. In short, it runs like this: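 In PBS with 2% BSA, salmon testes DNA and 50 µM zinc acetate, 200 nM protein was incubated on a custom Agilent array at 25 °C for 1 h and then washed off. The array had been made double-stranded by primer extension with Cy5-dUTP and blocked with 2% BSA. The proteins were transcription factors fused N-terminally to polyhistidine and DsRed, expressed in E. coli BL21-CodonPlus and purified on Ni–NTA. The binding signal is per-feature fluorescence intensity (arbitrary units) from an Axon 4000B scanner.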
Regarding “AAATTTAAAATTTAAACTTTGACTACGATTGATAAGCCAACGGAGTCACCTAGTGCAG”, the binding signal was 9150 fluorescence intensity (a.u.).
The figure for “ATACAATTATTACAATCTATTAAAAGCACATTAACATAACCGGAGTCACCTAGTGCAG” is 10200 fluorescence intensity (a.u.); for “TCCTATTGATTTTGTGCGATGGCTTGTAATAGGATGCCACCGGAGTCACCTAGTGCAG” it is 9560 fluorescence intensity (a.u.).
For the sequence “CTACATTGCTAATCCAAATAATTAGCACTAATCACGAAATCGGAGTCACCTAGTGCAG”, the binding signal was 15900 fluorescence intensity (a.u.).
Turning to “AGTACAGCAGAATTAATTGATGGGGCTTCTGTTTTGAGTTCGGAGTCACCTAGTGCAG”, the binding signal is 19100 fluorescence intensity (a.u.).
For “AGATTATCAATTATTGAATTAAAGGAAATTGTGTCCGGACCGGAGTCACCTAGTGCAG”, the binding signal is 21300 fluorescence intensity (a.u.).
Turning to “GGATGGGTGAGGGGATCGGCGAAGGCGGCGGGGTGGCGAACGGAGTCACCTAGTGCAG”, the binding signal is 5130 fluorescence intensity (a.u.).
Next, “GCTAATTACTTTTCGACTGTACTTAAACATGTTGACCCTACGGAGTCACCTAGTGCAG”: 38100 fluorescence intensity (a.u.).
Regarding “CTAATCAAGATTAGATATACCTAGAACAACAAATGCCAAACGGAGTCACCTAGTGCAG”, the binding signal is 4220 fluorescence intensity (a.u.).
Take “GGTACACATATGTGATTACTTGCAAACGGAAATCCTCTAGCGGAGTCACCTAGTGCAG”: the binding signal was 4820 fluorescence intensity (a.u.).
Turning to “AATAATAGATATTGCAGTTAAATAGTAAACGAAGCACACCCGGAGTCACCTAGTGCAG”, the binding signal is 8760 fluorescence intensity (a.u.).
With “AGAGGGAGATTGGATTTGCTTAATTTGTTACATATTCTGGCGGAGTCACCTAGTGCAG”, the binding signal is 30500 fluorescence intensity (a.u.).
The figure for “TTAAAATTTTATTATCATTTGTCTATTTTATCAGAGCTTACGGAGTCACCTAGTGCAG” is 12400 fluorescence intensity (a.u.); for “TTTAATTTCTCTGCTCACCTTTAGGTTTTAGCCATCTAGACGGAGTCACCTAGTGCAG” it is 4400 fluorescence intensity (a.u.).
Regarding “AATAATTTGAAGGGGATCTCCAAGGATACTCCTTGCGCAGCGGAGTCACCTAGTGCAG”, the binding signal was 13800 fluorescence intensity (a.u.).
Regarding “TTTCCTCATTTATTCACCTGTCACACCATCTTTCATCATACGGAGTCACCTAGTGCAG”, the binding signal was 4330 fluorescence intensity (a.u.).
The figure for “CTACTGATTATTCAAAGCTATGAAGGATCATTCTAAATCACGGAGTCACCTAGTGCAG” is 5070 fluorescence intensity (a.u.); for “GCTACAATTTTAATTACAATCTGACCGGACGCATCCACAACGGAGTCACCTAGTGCAG” it is 9010 fluorescence intensity (a.u.).
The figure for “TTTCCATTCAATTAAACTCACATGGAAATTACTTCGAAAGCGGAGTCACCTAGTGCAG” is 13100 fluorescence intensity (a.u.).
The figure for “ATCATTTACAAATTACTAAAATTTAAACTCGATATATAAGCGGAGTCACCTAGTGCAG” is 4020 fluorescence intensity (a.u.).
In the case of “TCCACCGGACAGGAGTAATTGGCAAGAAGAAACAAAAGGGCGGAGTCACCTAGTGCAG”, the binding signal is 8060 fluorescence intensity (a.u.).
Next, “ATTGATGATTTTATCTGGTTTGTTCAGCAATTTTGCAAGACGGAGTCACCTAGTGCAG”: 18000 fluorescence intensity (a.u.); “ACATAATTTTGCCCCGGTAATAAAACTTCAAACTTTATGTCGGAGTCACCTAGTGCAG”: 13900 fluorescence intensity (a.u.).
The figure for “GAACTAACTAATTAAGCTACCTGTGCATGTTGCCCAACCACGGAGTCACCTAGTGCAG” is 7900 fluorescence intensity (a.u.).
The figure for “GGTCTATAATTAGGGATGGGATAAGCCACTAGGAGGATGACGGAGTCACCTAGTGCAG” is 7190 fluorescence intensity (a.u.); for “GATTTAAACTGAAACGAACAGATTCTTTGTTCTTTGCATACGGAGTCACCTAGTGCAG” it is 9800 fluorescence intensity (a.u.); for “CCTGGTTTCATCAATCCCCATACCATCCAGATAATGTCTTCGGAGTCACCTAGTGCAG” it is 3950 fluorescence intensity (a.u.).
With “GGCGATAAATTGAAGCCAACAACATTGTGTCCATTGTCTTCGGAGTCACCTAGTGCAG”, the binding signal is 33000 fluorescence intensity (a.u.).
For “ATTGATGAATGTTGACAAACCTGGTTTGATTTGGAGGGAACGGAGTCACCTAGTGCAG”, the binding signal was 23500 fluorescence intensity (a.u.).
The figure for “GAAATTGCTAGTATATTATTTATGGGATATGGGTGTTACTCGGAGTCACCTAGTGCAG” is 3170 fluorescence intensity (a.u.); for “TTTACGTGACCTAATTGGATGGAGGTACTGTAAGGGAACACGGAGTCACCTAGTGCAG” it is 8140 fluorescence intensity (a.u.).
Next, “AAATTCTTGGGGTAATTGTAAATTTACTACTACTTTGAATCGGAGTCACCTAGTGCAG”: 4820 fluorescence intensity (a.u.); “ATGAGTGAATAAAATAGATAAATTTGGAGATGGTAGTCACCGGAGTCACCTAGTGCAG”: 3240 fluorescence intensity (a.u.); “AGTAATTAGAGGCAGATAGTAATAAGTGAGAGAGACGGGACGGAGTCACCTAGTGCAG”: 8510 fluorescence intensity (a.u.).
Next, “AGCTTTGACTGGTCCCCAGCCAGCTCGCCTATAAACGCGCCGGAGTCACCTAGTGCAG”: 6360 fluorescence intensity (a.u.); “GGATTAATTAAGCTTAATAAATTCGTCTCGCAGTTTCCTGCGGAGTCACCTAGTGCAG”: 27000 fluorescence intensity (a.u.).
“ATTGTATCTAATTATTGGCAACATGGAAATTAATCTCTTGCGGAGTCACCTAGTGCAG”: the binding signal was 9160 fluorescence intensity (a.u.).
On to “TGAATAATTGCCCAGTTAAAATGTCTGCTACTGAACACTGCGGAGTCACCTAGTGCAG”, for which the binding signal was 25800 fluorescence intensity (a.u.).
In the case of “CTAGACATTGATGGAACTCCGAACAAGTCAAAATTGGGTGCGGAGTCACCTAGTGCAG”, the binding signal is 14000 fluorescence intensity (a.u.).
Next, “GTACATGAATTTTGATTAATTGCTAATTTTACATATGGATCGGAGTCACCTAGTGCAG”: 26000 fluorescence intensity (a.u.); “TGGTCATTTTGACAAAATTAACGGTGTCTAACAGAGTGAACGGAGTCACCTAGTGCAG”: 8280 fluorescence intensity (a.u.); “GAATAAGTAATTATACTTATCATCCATTTAAACATGTTGCCGGAGTCACCTAGTGCAG”: 6520 fluorescence intensity (a.u.).
The figure for “CTTTTAGATTTGGTAAATAACTATTTGCCACCTCTATCTCCGGAGTCACCTAGTGCAG” is 3540 fluorescence intensity (a.u.); for “CCAGAAATAATTTGAATGCTGATACAGAAACTCGATTTCACGGAGTCACCTAGTGCAG” it is 5000 fluorescence intensity (a.u.); for “AACTTTTGTAGAGATTGATTGATCTACTGGGCTTGGCCAACGGAGTCACCTAGTGCAG” it is 26900 fluorescence intensity (a.u.).
Next, “CCAGAGTGAGCAACTGATTGGTAGGCAATCATATGGGATACGGAGTCACCTAGTGCAG”: 25200 fluorescence intensity (a.u.).
As to “TGGATGATTATGTGTCTGACCAAGCGGTTCGAGATGTGAACGGAGTCACCTAGTGCAG”, the binding signal is 16400 fluorescence intensity (a.u.).
Next, “CGCCACCAATCAGCGAGCTGCCGGACGAAATATCGGCGCGCGGAGTCACCTAGTGCAG”: 4640 fluorescence intensity (a.u.); “TCAAACTGACATATTGTCAACCGCACAATTAGGCACACAACGGAGTCACCTAGTGCAG”: 17900 fluorescence intensity (a.u.); “AATAATAAAATAAATTACATATTCTGTCTGTAAACTACAACGGAGTCACCTAGTGCAG”: 4300 fluorescence intensity (a.u.).
In the case of “CGAGTTAACTTAATTACCACGCGTATCTTAATTACACTGCCGGAGTCACCTAGTGCAG”, the binding signal was 13200 fluorescence intensity (a.u.).
“GTGATTAATTAATTATTAATTAATCGCTAATCAGGATAATCGGAGTCACCTAGTGCAG”: the binding signal was 65500 fluorescence intensity (a.u.).
Next, “GCTTCTATATCCGTGATTGTTAACACTATTATATTGTTATCGGAGTCACCTAGTGCAG”: 5570 fluorescence intensity (a.u.).
The figure for “GTCCGCCTCTAATCACGCCCTACCCAATCTAATCCTAAGCCGGAGTCACCTAGTGCAG” is 4240 fluorescence intensity (a.u.).
